{
  "source": "the supplement of paper PMC8728848",
  "binders": {"B1": {"name": "PILRa (Homo sapiens), Q9UKJ1 (protein)", "chain": "MGRPLLLPLLPLLLPPAFLQPSGSTGSGPSYLYGVTQPKHLSASMGGSVEIPFSFYYPWELATAPDVRISWRRGHFHRQSFYSTRPPSIHKDYVNRLFLNWTEGQKSGFLRISNLQKQDQSVYFCRVELDTRSSGRQQWQSIEGTKLSITQAVTTTTQRPSSMTTTWRLSSTTTTTGLRVTQGKRRSDSWHISLETAVGVAVAVTVLGIMILGLICLLRWRRRKGQQRTKATTPAREPFQNTEEPYENIRNEGQNTDPKLNPKDDGIVYASLALSSSTSPRAPPSHRPLKSPQNETLYSVLKA"}},
  "assay_in_all_cases": "glycan array binding signal (z-score within array); higher = stronger binding",
  "settings_in_all_cases": "glycan notation: IUPAC condensed, linker removed",
  "key": {"[1]": {"target": "Gal(b1-4)GlcNAc(b1-3)Gal(b1-4)GlcNAc", "how_it_was_run": "(§1)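 Columns mapping to the same glycan were averaged after glycan names were converted to IUPAC-condensed notation. The data come from 3228 arrays in the Consortium for Functional Glycomics database, limited to those with an available protein sequence. Binding is reported as a within-array Z-score averaged across arrays of one protein sequence and across linkers.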"}, "[2]": {"target": "Gal(b1-4)GlcNAc(b1-3)Gal(b1-4)GlcNAc(b1-3)Gal(b1-4)GlcNAc", "how_it_was_run": "as §1"}, "[3]": {"target": "Gal(b1-4)GlcNAc(b1-3)Gal(b1-4)[Fuc(a1-3)GlcNAc(b1-6)]Gal(b1-4)Glc", "how_it_was_run": "as §1"}, "[4]": {"target": "Gal(b1-4)GlcNAc(b1-3)Gal(b1-4)[Fuc(a1-3)]GlcNAc(b1-3)Gal(b1-4)[Fuc(a1-3)]GlcNAc", "how_it_was_run": "as §1"}, "[5]": {"target": "Gal(b1-4)GlcNAc(b1-3)GalNAc", "how_it_was_run": "as §1"}, "[6]": {"target": "Gal(b1-4)GlcNAc(b1-3)[Gal(b1-4)GlcNAc(b1-6)]Gal(b1-4)GlcNAc", "how_it_was_run": "as §1"}, "[7]": {"target": "Gal(b1-4)GlcNAc(b1-3)[Gal(b1-4)GlcNAc(b1-6)]GalNAc", "how_it_was_run": "as §1"}, "[8]": {"target": "Gal(b1-4)GlcNAc(b1-3)[GlcNAc(b1-6)]Gal(b1-4)GlcNAc", "how_it_was_run": "as §1"}, "[9]": {"target": "Gal(b1-4)GlcNAc(b1-6)Gal(b1-4)GlcNAc", "how_it_was_run": "as §1"}, "[10]": {"target": "Gal(b1-4)GlcNAc(b1-6)Gal(b1-4)GlcNAc(b1-6)GalNAc", "how_it_was_run": "as §1"}, "[11]": {"target": "Gal(b1-4)GlcNAc(b1-6)GalNAc", "how_it_was_run": "as §1"}, "[12]": {"target": "Gal(b1-4)GlcNAc(b1-6)[Gal(b1-3)]GalNAc", "how_it_was_run": "as §1"}, "[13]": {"target": "Gal(b1-6)Gal", "how_it_was_run": "as §1"}, "[14]": {"target": "Gal3S(b1-3)GalNAc", "how_it_was_run": "as §1"}, "[15]": {"target": "Gal3S(b1-3)GlcNAc", "how_it_was_run": "as §1"}, "[16]": {"target": "Gal3S(b1-3)[Fuc(a1-4)]GlcNAc", "how_it_was_run": "as §1"}, "[17]": {"target": "Gal3S(b1-4)Glc", "how_it_was_run": "as §1"}, "[18]": {"target": "Gal3S(b1-4)Glc6S", "how_it_was_run": "as §1"}, "[19]": {"target": "Gal3S(b1-4)GlcNAc", "how_it_was_run": "as §1"}, "[20]": {"target": "Gal3S(b1-4)GlcNAc6S", "how_it_was_run": "as §1"}, "[21]": {"target": "Gal3S(b1-4)[Fuc(a1-3)]Glc", "how_it_was_run": "as §1"}, "[22]": {"target": "Gal3S(b1-4)[Fuc(a1-3)]Glc6S", "how_it_was_run": "as §1"}, "[23]": {"target": "Gal3S4S(b1-4)GlcNAc", "how_it_was_run": "as §1"}, "[24]": {"target": "Gal3S6S(b1-4)GlcNAc", "how_it_was_run": "as §1"}, "[25]": {"target": "Gal3S6S(b1-4)GlcNAc6S", "how_it_was_run": "as §1"}, "[26]": {"target": "Gal4S(b1-4)GlcNAc", "how_it_was_run": "as §1"}, "[27]": {"target": "Gal4S6S(b1-4)GlcNAc", "how_it_was_run": "as §1"}, "[28]": {"target": "Gal6S(b1-3)GlcNAc", "how_it_was_run": "as §1"}, "[29]": {"target": "Gal6S(b1-3)GlcNAc6S", "how_it_was_run": "as §1"}, "[30]": {"target": "Gal6S(b1-4)Glc", "how_it_was_run": "as §1"}, "[31]": {"target": "Gal6S(b1-4)Glc6S", "how_it_was_run": "as §1"}, "[32]": {"target": "Gal6S(b1-4)GlcNAc", "how_it_was_run": "as §1"}, "[33]": {"target": "Gal6S(b1-4)GlcNAc6S", "how_it_was_run": "as §1"}, "[34]": {"target": "GalNAc(a1-3)Gal", "how_it_was_run": "as §1"}, "[35]": {"target": "GalNAc(a1-3)GalNAc", "how_it_was_run": "as §1"}, "[36]": {"target": "GalNAc(a1-3)GalNAc(a1-3)Gal(a1-4)Gal(b1-4)GlcNAc", "how_it_was_run": "as §1"}, "[37]": {"target": "GalNAc(a1-3)GalNAc(b1-3)Gal(a1-4)Gal(b1-4)Glc", "how_it_was_run": "as §1"}, "[38]": {"target": "GalNAc(b1-3)Gal", "how_it_was_run": "as §1"}},
  "note": "The other results are listed elsewhere or left out.",
  "data": [
    {"binder": "B1", "values": [
      {"measurement": "glycan array binding signal (z-score)", "setting": "[1]", "value": -0.293},
      {"measurement": "glycan array binding signal (z-score)", "setting": "[2]", "value": -0.382},
      {"measurement": "glycan array binding signal (z-score)", "setting": "[3]", "value": -0.309},
      {"measurement": "glycan array binding signal (z-score)", "setting": "[4]", "value": -0.181},
      {"measurement": "glycan array binding signal (z-score)", "setting": "[5]", "value": -0.038},
      {"measurement": "glycan array binding signal (z-score)", "setting": "[6]", "value": -0.319},
      {"measurement": "glycan array binding signal (z-score)", "setting": "[7]", "value": -0.348},
      {"measurement": "glycan array binding signal (z-score)", "setting": "[8]", "value": -0.338},
      {"measurement": "glycan array binding signal (z-score)", "setting": "[9]", "value": -0.187},
      {"measurement": "glycan array binding signal (z-score)", "setting": "[10]", "value": -0.441},
      {"measurement": "glycan array binding signal (z-score)", "setting": "[11]", "value": -0.211},
      {"measurement": "glycan array binding signal (z-score)", "setting": "[12]", "value": -0.125},
      {"measurement": "glycan array binding signal (z-score)", "setting": "[13]", "value": -0.177},
      {"measurement": "glycan array binding signal (z-score)", "setting": "[14]", "value": -0.339},
      {"measurement": "glycan array binding signal (z-score)", "setting": "[15]", "value": -0.258},
      {"measurement": "glycan array binding signal (z-score)", "setting": "[16]", "value": -0.229},
      {"measurement": "glycan array binding signal (z-score)", "setting": "[17]", "value": 0.009},
      {"measurement": "glycan array binding signal (z-score)", "setting": "[18]", "value": 0.618},
      {"measurement": "glycan array binding signal (z-score)", "setting": "[19]", "value": -0.234},
      {"measurement": "glycan array binding signal (z-score)", "setting": "[20]", "value": -0.01},
      {"measurement": "glycan array binding signal (z-score)", "setting": "[21]", "value": -0.1},
      {"measurement": "glycan array binding signal (z-score)", "setting": "[22]", "value": 1.02},
      {"measurement": "glycan array binding signal (z-score)", "setting": "[23]", "value": -0.191},
      {"measurement": "glycan array binding signal (z-score)", "setting": "[24]", "value": 0.574},
      {"measurement": "glycan array binding signal (z-score)", "setting": "[25]", "value": 0.09},
      {"measurement": "glycan array binding signal (z-score)", "setting": "[26]", "value": 0.374},
      {"measurement": "glycan array binding signal (z-score)", "setting": "[27]", "value": 0.732},
      {"measurement": "glycan array binding signal (z-score)", "setting": "[28]", "value": -0.311},
      {"measurement": "glycan array binding signal (z-score)", "setting": "[29]", "value": -0.127},
      {"measurement": "glycan array binding signal (z-score)", "setting": "[30]", "value": -0.227},
      {"measurement": "glycan array binding signal (z-score)", "setting": "[31]", "value": 0.201},
      {"measurement": "glycan array binding signal (z-score)", "setting": "[32]", "value": -0.22},
      {"measurement": "glycan array binding signal (z-score)", "setting": "[33]", "value": 0.015},
      {"measurement": "glycan array binding signal (z-score)", "setting": "[34]", "value": 0.413},
      {"measurement": "glycan array binding signal (z-score)", "setting": "[35]", "value": -0.143},
      {"measurement": "glycan array binding signal (z-score)", "setting": "[36]", "value": -0.27},
      {"measurement": "glycan array binding signal (z-score)", "setting": "[37]", "value": -0.205},
      {"measurement": "glycan array binding signal (z-score)", "setting": "[38]", "value": 0.508}
    ]}
  ]
}
